# Measured values: the supplement of paper PMC12632987
# Whole data set: some 4,500 sequences, median “median log2 fold change of GCK-ALFA target abundance (FLAG IP / Myc IP barcode read proportion)” near 0.078, cut for the lowest 2% near -0.6. The list shows a part of the results.
# B1: GBRAP_14_3786 (protein)
# chain: MEKKLELLEKAKEEIKEEAAKIAPAKADELNAAIDEIFKETKEEIKKTGDAVKAVEEARERLLARFREILADEPEIVRAALLAAVDNILTELELELEELE
# B2: GBRAP_14_3868 (protein)
# chain: KEKALEIVEEAIDEAAAELKKAFPEEAARIDAVAAEIREYARELLESEEDIEEAMEKIREHALALTAEAFADLPPEDQAAALTIVDDEFLEAELEIEEEL
# B3: GBRAP_35_5530 (protein)
# chain: ATDEEITDWLVATIDDLVLALPDMPVDTALAAGTSIARAAREVAKEVKDNKEALEKILEAMRRLAEALAARAEEDPRMQPALDLARAVVEEIEKLLKEAE
# B4: GBRAP_160_4454 (protein)
# chain: SERLEKLLKEIDEIREEAIKLIEGETHEQRVVIVEGLFGEFVMTLVSDDSISDELEDEVAAEVDELIDTLRANPDLTEEEIKELIKETAEKIKEILKEKL
# B5: GBRAP_125_3135 (protein)
# chain: RREALLALAEALARLFGFSEEEIAEIREIAEAHDPAQTIVAIYLAAGFEELAELADEVLDKLTEEEIAELRDLALASRDLPLEEAEAALLAKLKELKAKL
# B6: GBRAP_11_2852 (protein)
# chain: KKEKLEKILKAAQAAIATVDALIAAGTTDAALQAQTKKKLEELKELVKEYGDENLIELVEEAQAAFEEAAADPANRAQYYNEALAFLRALEGEVLLKLEE
# B7: GBRAP_184_5063 (protein)
# chain: KTYEAEIEVTNLEEAKAKMAALAEEIKDFKGNLIVQLFLPEFDREIVETVLDQLAAIKAAGYAKKITLGIDADTTEEDVDFLVSKADALGINVVVALREE
# B8: GBRAP_14_3815 (protein)
# chain: KEELIKEINKILEELRDELVNLLGLPEEEVTKLVEEAKKKIEEAILTKENPEEEIEKIMEELRKEVAKLAAKLGADVAAAAEALVTDAEYEILELIEEKK
# B9: GBRAP_166_4910 (protein)
# chain: SLEELVERAKARIRALVAAMPAADAAGRLELAIEIAELLEELREAGASEEQLDEAWRALAEALKEAGLDVEREVARVAAAAGFDEEEVERVDAIVAEVLA
# B10: GBRAP_184_5098 (protein)
# chain: KVLVAKIKAKTLEEAKKKAYEVLDKAAKEGANLIILFELENISEEEIAELVEEVGKRAKELGIPNVTLGIENDLSEETIDKLIEIADKLGIKLVVAIPEE
# B11: GBRAP_52_5944 (protein)
# chain: SEARVRALAEAFVAAAAAGDTEKARAILLQAAKELNDEEWRLFAAALAELLATADLETIERVLEIVLESADELEALGVSEEQIGDLEAAIARAGAAALAA
# B12: GBRAP_52_5986 (protein)
# chain: MKEEAKKIAEELVKLMLEGKEEEAEKLMKEIAENKSQEFILMVMEELAKMAKTATPEEVDAIVDTALMLGDIALEAGFDEAEIDDAEARVAAAAVENLKK
# B13: GBRAP_45_5803 (protein)
# chain: MSPLEQELAAALAALDRAIALVEANEALPAERRAAYIAELEALRARLKAHPRDAAALDELAAELEALLKRLLADPEATAETIEAVLDALNHVLDARELLK
# B14: GBRAP_35_5559 (protein)
# chain: EFDEEVVEMMTNTAEDALLAVEDVPVDTLIAITTSIAKAALKILKEEKENKEGMGKLGKAMLELLDAAIKKAKEEGAPQEKIEELEKLRKEIEEALKEIE
# B15: GBRAP_160_4246 (protein)
# chain: KERLERIREELEDEAEVLLELLLEVPASQRAAYARAAAGNMVRIVEEEPEMSDETVEEVDELADAMAARLVAAADASPEELRALLREGVEEIVEAVEEGL
# B16: GBRAP_137_3661 (protein)
# chain: MKIEVNAKLEGDFGEVEIKAENKETAEEAEDIAIDVARETGVAAAISLDKEEKTVYVDLIGTPEQLRAFLDKLLERLSKKYDVDATIEEDGKTTKKKLKK
# B17: GBRAP_184_5340 (protein)
# chain: KTLEVHIPNSSLEEIIKEFEKAAKKAAAEGANLLVTVDAEGFSAEEVVELLEKLGEIAKKEGLKDVTVDIDQELTEEEADKVIEVADKYGIRLTVPLKDE
# B18: GBRAP_39_5636 (protein)
# chain: SEAEEAEETYSYLEALGAKLLYDSGLSLDELLARERAAALAAFADDPELQALLAELEALAAASDELDRLALVGAMHRATEGAPREEVRRDLELLIARLKA
# B19: GBRAP_184_5299 (protein)
# chain: KVEHVFIEADTAEEAIEQIEKLAEEAKKKGVKLSLYLSLKNVSVEGFKKIAEHLKELKEEGIIEDAVVHIEDDLSEEERDEFIKIADEAGVKLVLALSDE
# Biological target: GABARAP, O95166
# Test: median log2 fold change of GCK-ALFA target abundance (FLAG IP / Myc IP barcode read proportion) (log2 ratio); each designed protein is fused to an ALFA-tag nanobody in HEK293 cells to bring the named protein to FLAG-tagged glucokinase (GCK); Myc marks an untargeted standard; higher = target protein stabilised (more abundant)
# Settings: target protein: 3xFLAG-MCP-GCK-ALFA reporter; HEK293 landing pad (RPLP)
# In short: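 HEK293 landing-pad cells received a recombined binder library fused to the ALFA nanobody and were induced with 2 μg mL^−1 doxycycline, then transfected with a plasmid encoding a FLAG-tagged target and a Myc-tagged standard. Lysates were collected after 48 h for anti-FLAG and anti-Myc immunoprecipitation, and the circular RNA barcodes were reverse transcribed, amplified and sequenced. Target abundance for each binder is the median log2 ratio of FLAG to Myc barcode read proportions. Barcodes had to reach a proportion of at least 10^−7 in both replicates, each binder needed at least 3 barcodes per replicate, a pseudocount of 10^−6 was applied, and the two replicates were pooled.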
# Sequence of GABARAP, O95166 (O95166 whole entry, the tested form may be a part): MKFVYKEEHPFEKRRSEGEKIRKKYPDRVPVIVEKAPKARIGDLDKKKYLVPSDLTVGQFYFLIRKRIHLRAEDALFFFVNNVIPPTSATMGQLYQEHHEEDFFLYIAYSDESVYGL
row,Binder,median log2 fold change
1,B1,0.412
2,B2,-0.151
3,B3,0.202
4,B4,0.115
5,B5,-0.346
6,B6,0.223
7,B7,0.122
8,B8,0.113
9,B9,0.271
10,B10,-0.0804
11,B11,-0.227
12,B12,-0.152
13,B13,0.166
14,B14,-0.034
15,B15,-0.171
16,B16,-0.0391
17,B17,0.166
18,B18,0.198
19,B19,-0.0173
